Experimental findings from paper PMC6215420 are described below.

The target of assay [1] is T1, near full-length RECK (RF: residues 27-942) (mouse) (UniProt Q9Z0J1).
T1 sequence: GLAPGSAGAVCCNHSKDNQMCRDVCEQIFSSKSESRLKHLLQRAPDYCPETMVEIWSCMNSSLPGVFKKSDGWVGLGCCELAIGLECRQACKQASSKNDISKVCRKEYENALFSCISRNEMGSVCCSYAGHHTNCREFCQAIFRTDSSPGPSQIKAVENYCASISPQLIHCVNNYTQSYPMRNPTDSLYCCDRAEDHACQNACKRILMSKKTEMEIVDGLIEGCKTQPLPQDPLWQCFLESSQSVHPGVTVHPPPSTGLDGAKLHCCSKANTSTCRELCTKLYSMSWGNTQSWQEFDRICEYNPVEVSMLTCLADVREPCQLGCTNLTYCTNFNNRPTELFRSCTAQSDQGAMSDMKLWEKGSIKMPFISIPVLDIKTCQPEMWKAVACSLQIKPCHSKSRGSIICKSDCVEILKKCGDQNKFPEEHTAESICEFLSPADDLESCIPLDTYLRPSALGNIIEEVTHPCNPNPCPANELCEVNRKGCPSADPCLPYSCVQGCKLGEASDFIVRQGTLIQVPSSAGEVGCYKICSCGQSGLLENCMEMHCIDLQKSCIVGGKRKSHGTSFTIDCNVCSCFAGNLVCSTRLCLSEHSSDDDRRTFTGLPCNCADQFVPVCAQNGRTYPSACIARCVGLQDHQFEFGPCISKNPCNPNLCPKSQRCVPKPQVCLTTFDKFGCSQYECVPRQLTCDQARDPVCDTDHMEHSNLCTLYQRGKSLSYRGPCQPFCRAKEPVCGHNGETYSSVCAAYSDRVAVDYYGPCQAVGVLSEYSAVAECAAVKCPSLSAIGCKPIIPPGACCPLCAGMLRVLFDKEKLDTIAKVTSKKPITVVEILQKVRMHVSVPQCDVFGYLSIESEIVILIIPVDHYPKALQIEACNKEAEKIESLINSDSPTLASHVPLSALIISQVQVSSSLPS
As to the kind of experiment: two-hybrid; RF (pGBKT7) as bait, AF or Ad1-6 (pGADT7) as prey; stringent setting of Fig. 1B, growth on SD (-LTAH) plates with 3AT.

Assay [2] concerns the target T2, ADAMTS10 fragment Ad4 (residues 823-1104) (mouse) (UniProt P58459).
T2 sequence: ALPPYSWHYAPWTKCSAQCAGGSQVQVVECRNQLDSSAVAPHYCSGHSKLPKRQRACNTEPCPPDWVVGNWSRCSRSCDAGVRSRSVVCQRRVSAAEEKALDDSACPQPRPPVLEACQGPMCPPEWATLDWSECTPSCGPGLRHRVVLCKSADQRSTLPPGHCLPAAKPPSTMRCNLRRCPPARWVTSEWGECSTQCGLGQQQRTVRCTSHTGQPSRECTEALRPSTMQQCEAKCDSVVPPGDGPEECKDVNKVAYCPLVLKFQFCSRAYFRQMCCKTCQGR
As to the kind of experiment: two-hybrid; reduced stringency (condition III: LTAH (-) medium with 2 mM 3AT), 30 C, 7 days; bait RF or Ad4, prey AF, Ad4, RF or Rd7.

Assay [3] concerns the target T3, near full-length ADAMTS10 (AF: residues 25-1104) (mouse) (UniProt P58459).
T3 sequence: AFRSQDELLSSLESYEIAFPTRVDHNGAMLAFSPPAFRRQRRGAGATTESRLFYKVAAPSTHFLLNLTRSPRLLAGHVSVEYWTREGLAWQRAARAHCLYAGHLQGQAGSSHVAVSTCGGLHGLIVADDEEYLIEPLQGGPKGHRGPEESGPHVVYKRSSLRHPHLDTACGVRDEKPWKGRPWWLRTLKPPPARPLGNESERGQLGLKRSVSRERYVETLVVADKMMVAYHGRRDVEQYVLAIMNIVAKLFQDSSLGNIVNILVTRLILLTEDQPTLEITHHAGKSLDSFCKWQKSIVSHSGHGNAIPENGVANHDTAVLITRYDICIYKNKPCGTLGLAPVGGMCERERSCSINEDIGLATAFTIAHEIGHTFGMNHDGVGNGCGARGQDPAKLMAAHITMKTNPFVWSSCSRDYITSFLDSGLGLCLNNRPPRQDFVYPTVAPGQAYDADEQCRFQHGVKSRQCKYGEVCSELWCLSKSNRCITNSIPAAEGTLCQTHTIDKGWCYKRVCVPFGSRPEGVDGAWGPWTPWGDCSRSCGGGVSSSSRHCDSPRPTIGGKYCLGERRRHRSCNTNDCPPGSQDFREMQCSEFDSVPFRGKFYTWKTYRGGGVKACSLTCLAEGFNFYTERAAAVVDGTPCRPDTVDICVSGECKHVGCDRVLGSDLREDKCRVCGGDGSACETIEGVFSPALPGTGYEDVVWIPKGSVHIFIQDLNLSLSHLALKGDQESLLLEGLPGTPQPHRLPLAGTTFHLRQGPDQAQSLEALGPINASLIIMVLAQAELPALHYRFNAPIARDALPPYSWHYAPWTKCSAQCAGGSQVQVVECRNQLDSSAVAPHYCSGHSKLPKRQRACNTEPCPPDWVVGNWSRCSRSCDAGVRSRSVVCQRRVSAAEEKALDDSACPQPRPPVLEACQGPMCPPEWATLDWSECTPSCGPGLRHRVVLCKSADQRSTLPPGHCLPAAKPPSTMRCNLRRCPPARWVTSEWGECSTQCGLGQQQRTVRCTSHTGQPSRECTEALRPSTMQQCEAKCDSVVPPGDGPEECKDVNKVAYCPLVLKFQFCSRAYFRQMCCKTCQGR
In words: two-hybrid; AF (pGBKT7) as bait, RF or Rd1-9 (pGADT7) as prey; stringent conditions: LTAH (-) + 10 mM 3AT; growth after 4 days.

The target in assay [4] is T1, near full-length RECK (RF: residues 27-942) (mouse). As to the kind of experiment: condition: only stringent selection of Fig. 1A and B; two-hybrid; RF (pGBKT7) as bait, AF or Ad1-6 (pGADT7) as prey; stringent setting of Fig. 1B, growth on SD (-LTAH) plates with 3AT.
Assay [5] shares this target. In words: two-hybrid; reduced stringency (condition III: LTAH (-) medium with 2 mM 3AT), 30 C, 7 days; bait RF or Ad4, prey AF, Ad4, RF or Rd7.
Assay [6] has as its target T3, near full-length ADAMTS10 (AF: residues 25-1104) (mouse). As to the kind of experiment: condition: only stringent selection, LTAH (-) + 10 mM 3AT; two-hybrid; AF (pGBKT7) as bait, RF or Rd1-9 (pGADT7) as prey; stringent conditions: LTAH (-) + 10 mM 3AT; growth after 4 days.

Results are given in words; binding and its absence hold for the method and conditions named. Some results given as binding are weak or reduced against the parent protein; the word gives no strength.

B1: ADAMTS10 fragment Ad4 (residues 823-1104) (domain or fragment, UniProt P58459 823-1104)
chain: T2 sequence
Turning to B1, the binding entry in assay [1] was “binds”.

B2: RECK fragment Rd7 (residues 349-629) (domain or fragment, UniProt Q9Z0J1 349-629)
chain: GCTNLTYCTNFNNRPTELFRSCTAQSDQGAMSDMKLWEKGSIKMPFISIPVLDIKTCQPEMWKAVACSLQIKPCHSKSRGSIICKSDCVEILKKCGDQNKFPEEHTAESICEFLSPADDLESCIPLDTYLRPSALGNIIEEVTHPCNPNPCPANELCEVNRKGCPSADPCLPYSCVQGCKLGEASDFIVRQGTLIQVPSSAGEVGCYKICSCGQSGLLENCMEMHCIDLQKSCIVGGKRKSHGTSFTIDCNVCSCFAGNLVCSTRLCLSEHSSDDDRRTFT
In the case of B2, the binding result in assay [2] and in assay [3] was “binds” in each case.

B3: near full-length ADAMTS10 (AF: residues 25-1104) (domain or fragment, UniProt P58459 25-1104)
chain: T3 sequence
For B3, the binding result in assay [4] was “no binding”; in assay [5], “binds”.

B4: near full-length RECK (RF: residues 27-942) (domain or fragment, UniProt Q9Z0J1 27-942)
chain: T1 sequence
As for B4, the binding result in assay [6] is “no binding”.

B5: ADAMTS10 fragment Ad3 (residues 691-1104) (domain or fragment, UniProt P58459 691-1104)
chain: REDKCRVCGGDGSACETIEGVFSPALPGTGYEDVVWIPKGSVHIFIQDLNLSLSHLALKGDQESLLLEGLPGTPQPHRLPLAGTTFHLRQGPDQAQSLEALGPINASLIIMVLAQAELPALHYRFNAPIARDALPPYSWHYAPWTKCSAQCAGGSQVQVVECRNQLDSSAVAPHYCSGHSKLPKRQRACNTEPCPPDWVVGNWSRCSRSCDAGVRSRSVVCQRRVSAAEEKALDDSACPQPRPPVLEACQGPMCPPEWATLDWSECTPSCGPGLRHRVVLCKSADQRSTLPPGHCLPAAKPPSTMRCNLRRCPPARWVTSEWGECSTQCGLGQQQRTVRCTSHTGQPSRECTEALRPSTMQQCEAKCDSVVPPGDGPEECKDVNKVAYCPLVLKFQFCSRAYFRQMCCKTCQGR
Consider B5, for which the binding entry in assay [1] is “binds”.
